Measurements from patent US8975247B2, “Methods and compositions of treating a flaviviridae family viral infection” (priority 2009, dated 2015).

Experiments:
Huh7.5 cells = type: cell-based; conditions: human, 3 days
[1] = tested on: HCV genotype 2a infectious clone; assay: HCV genotype 2a infectious clone assay (Renilla luciferase); type: cell-based; conditions: for activity at 5 µM: Hepatitis C virus, read-out: 2a % activity @ 5 μM, % replication activity of control remaining at 5 μM test compound

c1ccc2c(c1)nc(CN1CCCC1)n2CC1CCNCC1 [EBP193]
2a Cell Viability @ 5 μM (Huh7.5 cells): >100, >100% | 2a Cell Viability @ 10 μM (Huh7.5 cells): >100, >100% | activity at 5 µM [1]: 77%

CC(=O)N1CCC(Cn2c(CN3CCCC3)nc3ccccc32)CC1 [EBP194]
2a Cell Viability @ 5 μM (Huh7.5 cells): >100, >100% | 2a Cell Viability @ 10 μM (Huh7.5 cells): >100, >100% | activity at 5 µM [1]: 80%

Cc1cc2nc(CN3CCCC3)n(CC3CCN(S(C)(=O)=O)CC3)c2cc1C [EBP195]
2a Cell Viability @ 5 μM (Huh7.5 cells): >100, >100% | 2a Cell Viability @ 10 μM (Huh7.5 cells): >100, >100% | activity at 5 µM [1]: 71%

c1ccc2c(c1)nc(CN1CCCC1)n2CC1CCCNC1 (stereo not drawn) [EBP196]
2a Cell Viability @ 5 μM (Huh7.5 cells): > 100% | 2a Cell Viability @ 10 μM (Huh7.5 cells): 98% | activity at 5 µM [1]: 63%

Cc1ccc(Cn2c(CN3CCCC3)nc3ccccc32)cc1 [EBP197]
2a Cell Viability @ 5 μM (Huh7.5 cells): 96% | 2a Cell Viability @ 10 μM (Huh7.5 cells): 95% | activity at 5 µM [1]: 60%

Clc1ccc(Cn2cnc3cc(Cl)ccc32)cc1 [EBP207]
2a Cell Viability @ 5 μM (Huh7.5 cells): > 100% | 2a Cell Viability @ 10 μM (Huh7.5 cells): 88% | activity at 5 µM [1]: 63%

Fc1cc2ncn(Cc3ccc(Cl)cc3)c2cc1F [EBP208]
2a Cell Viability @ 5 μM (Huh7.5 cells): >100, >100% | 2a Cell Viability @ 10 μM (Huh7.5 cells): >100, >100% | 2a % activity @ 5 μM ([1]; % replication activity of control remaining at 5 μM test compound): 80%

COc1ccc2c(c1)ncn2Cc1ccc(Cl)cc1 [EBP209]
2a Cell Viability @ 5 μM (Huh7.5 cells): > 100% | 2a Cell Viability @ 10 μM (Huh7.5 cells): 85% | activity at 5 µM [1]: 64%

COc1cc2ncn(Cc3ccc(Cl)cc3)c2cc1OC [EBP210]
2a Cell Viability @ 5 μM (Huh7.5 cells): > 100% | 2a Cell Viability @ 10 μM (Huh7.5 cells): 90% | activity at 5 µM [1]: 65%

Clc1ccc(Cn2cnc3cc(Cl)c(Cl)cc32)cc1 [EBP211]
2a Cell Viability @ 5 μM (Huh7.5 cells): 93% | 2a Cell Viability @ 10 μM (Huh7.5 cells): 91% | activity at 5 µM [1]: 69%

Cc1cc2nc(CN3CCCC3=O)n(Cc3ccc(Cl)cc3)c2cc1C [EBP216]
2a Cell Viability @ 5 μM (Huh7.5 cells): 97% | 2a Cell Viability @ 10 μM (Huh7.5 cells): 95% | activity at 5 µM [1]: 77%

Clc1ccc(Cn2cnc3cc4c(cc32)OCCO4)cc1 [EBP217]
2a Cell Viability @ 5 μM (Huh7.5 cells): > 100% | 2a Cell Viability @ 10 μM (Huh7.5 cells): 94% | activity at 5 µM [1]: 76%

Cc1cc2ncn(Cc3ccc(Cl)cc3)c2cc1Cl [EBP218]
2a Cell Viability @ 5 μM (Huh7.5 cells): > 100% | 2a Cell Viability @ 10 μM (Huh7.5 cells): 88% | activity at 5 µM [1]: 65%

Clc1ccc(Cn2c(-c3cncs3)nc3ccccc32)cc1 [EBP225]
2a Cell Viability @ 5 μM (Huh7.5 cells): >100, >100% | 2a Cell Viability @ 10 μM (Huh7.5 cells): >100, >100% | activity at 5 µM [1]: 71%

O=C(O)c1ccc2c(c1)ncn2Cc1ccc(Cl)cc1 [EBP226]
2a Cell Viability @ 5 μM (Huh7.5 cells): >100, >100% | 2a Cell Viability @ 10 μM (Huh7.5 cells): >100, >100% | activity at 5 µM [1]: 78%

O=C(O)c1ccc2ncn(Cc3ccc(Cl)cc3)c2c1 [EBP227]
2a Cell Viability @ 5 μM (Huh7.5 cells): >100, >100% | 2a Cell Viability @ 10 μM (Huh7.5 cells): >100, >100% | activity at 5 µM [1]: 81%

Cc1cc2nc(CN3CCCC3C)n(Cc3ccc(Cl)cc3)c2cc1C (stereo not drawn) [EBP231]
2a Cell Viability @ 5 μM (Huh7.5 cells): > 100% | 2a Cell Viability @ 10 μM (Huh7.5 cells): 89% | activity at 5 µM [1]: 49%

Cc1cc2c(ncn2Cc2ccc(Cl)cc2)c(N)c1C [EBP238]
2a Cell Viability @ 5 μM (Huh7.5 cells): 100, 100% | 2a Cell Viability @ 10 μM (Huh7.5 cells): 100, 100% | activity at 5 µM [1]: 69%

Cc1cc2c(ncn2Cc2ccc(Cl)cc2)c(NC(=O)C(C)C)c1C [EBP240]
2a Cell Viability @ 5 μM (Huh7.5 cells): > 100% | 2a Cell Viability @ 10 μM (Huh7.5 cells): 99% | activity at 5 µM [1]: 86%

Cc1cc2c(ncn2Cc2ccc(Cl)cc2)c(NS(C)(=O)=O)c1C [EBP243]
2a Cell Viability @ 5 μM (Huh7.5 cells): >100, >100% | 2a Cell Viability @ 10 μM (Huh7.5 cells): >100, >100% | activity at 5 µM [1]: 90%

CCCCNC(=O)Nc1c(C)c(C)cc2c1ncn2Cc1ccc(Cl)cc1 [EBP245]
2a Cell Viability @ 5 μM (Huh7.5 cells): 96% | 2a Cell Viability @ 10 μM (Huh7.5 cells): 93% | activity at 5 µM [1]: 87%

CCN(CC)c1c(C)c(C)cc2c1ncn2Cc1ccc(Cl)cc1 [EBP246]
2a Cell Viability @ 5 μM (Huh7.5 cells): > 100% | 2a Cell Viability @ 10 μM (Huh7.5 cells): 98% | activity at 5 µM [1]: 77%

Cc1cc2ncn(Cc3ccc(Cl)cc3)c2cc1C [EBP268]
2a Cell Viability @ 5 μM (Huh7.5 cells): 86% | 2a Cell Viability @ 10 μM (Huh7.5 cells): 74% | activity at 5 µM [1]: 66%
